# Results reported in the supplement of paper PMC8728848.
# Some of the results follow.
# Columns and labels:
# Assay in all cases: glycan array binding signal (z-score within array); higher = stronger binding
# Conditions in all cases: glycan notation: IUPAC condensed, linker removed; mutation: R186I
# [1] = target: Gal(b1-4)GlcNAc(b1-2)Man(a1-6)[GlcNAc(b1-2)Man(a1-3)]Man(b1-4)GlcNAc(b1-4)GlcNAc
# Summary of the method: (§1)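 The binding signal is a Z-score computed within each array. Data were drawn from 3228 arrays in the Consortium for Functional Glycomics database, restricted to those with a known protein sequence. Scores were averaged over arrays of the same protein sequence at different concentrations or buffers, and over linkers, and negative values can be taken as non-binding.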
# [2] = target: Gal(b1-4)GlcNAc(b1-2)Man(a1-6)[Man(a1-3)]Man(b1-4)GlcNAc(b1-4)GlcNAc
# Summary of the method: as §1
# [3] = target: Gal(b1-4)GlcNAc(b1-2)[Gal(b1-4)GlcNAc(b1-4)]Man(a1-3)[Gal(b1-4)GlcNAc(b1-2)Man(a1-6)]Man(b1-4)GlcNAc(b1-4)GlcNAc
# Summary of the method: as §1
# [4] = target: Gal(b1-4)GlcNAc(b1-2)[Gal(b1-4)GlcNAc(b1-4)]Man(a1-3)[Gal(b1-4)GlcNAc(b1-2)[Gal(b1-4)GlcNAc(b1-6)]Man(a1-6)]Man(b1-4)GlcNAc(b1-4)GlcNAc
# Summary of the method: as §1
# [5] = target: Gal(b1-4)GlcNAc(b1-3)Gal(b1-3)GlcNAc
# Summary of the method: as §1
# [6] = target: Gal(b1-4)GlcNAc(b1-3)Gal(b1-4)Glc
# Summary of the method: as §1
# [7] = target: Gal(b1-4)GlcNAc(b1-3)Gal(b1-4)GlcNAc
# Summary of the method: as §1
# [8] = target: Gal(b1-4)GlcNAc(b1-3)Gal(b1-4)GlcNAc(b1-3)Gal(b1-4)GlcNAc
# Summary of the method: as §1
# [9] = target: Gal(b1-4)GlcNAc(b1-3)Gal(b1-4)[Fuc(a1-3)]GlcNAc(b1-3)Gal(b1-4)[Fuc(a1-3)]GlcNAc
# Summary of the method: as §1
# [10] = target: Gal(b1-4)GlcNAc(b1-3)GalNAc
# Summary of the method: as §1
# [11] = target: Gal(b1-4)GlcNAc(b1-3)[Gal(b1-4)GlcNAc(b1-6)]Gal(b1-4)GlcNAc
# Summary of the method: as §1
# [12] = target: Gal(b1-4)GlcNAc(b1-3)[Gal(b1-4)GlcNAc(b1-6)]GalNAc
# Summary of the method: as §1
# [13] = target: Gal(b1-4)GlcNAc(b1-3)[GlcNAc(b1-6)]Gal(b1-4)GlcNAc
# Summary of the method: as §1
# [14] = target: Gal(b1-4)GlcNAc(b1-6)Gal(b1-4)GlcNAc
# Summary of the method: as §1
# [15] = target: Gal(b1-4)GlcNAc(b1-6)GalNAc
# Summary of the method: as §1
# [16] = target: Gal(b1-4)GlcNAc(b1-6)[Gal(b1-3)]GalNAc
# Summary of the method: as §1
# [17] = target: Gal3S(b1-3)GalNAc
# Summary of the method: as §1
# [18] = target: Gal3S(b1-3)GlcNAc
# Summary of the method: as §1
# [19] = target: Gal3S(b1-3)[Fuc(a1-4)]GlcNAc
# Summary of the method: as §1
# [20] = target: Gal3S(b1-4)Glc
# Summary of the method: as §1
# [21] = target: Gal3S(b1-4)Glc6S
# Summary of the method: as §1
# [22] = target: Gal3S(b1-4)GlcNAc
# Summary of the method: as §1
# [23] = target: Gal3S(b1-4)GlcNAc6S
# Summary of the method: as §1
# [24] = target: Gal3S(b1-4)[Fuc(a1-3)]Glc
# Summary of the method: as §1
# [25] = target: Gal3S(b1-4)[Fuc(a1-3)]Glc6S
# Summary of the method: as §1
# [26] = target: Gal3S4S(b1-4)GlcNAc
# Summary of the method: as §1
# [27] = target: Gal3S6S(b1-4)GlcNAc
# Summary of the method: as §1
# [28] = target: Gal3S6S(b1-4)GlcNAc6S
# Summary of the method: as §1
# [29] = target: Gal4S(b1-4)GlcNAc
# Summary of the method: as §1
# [30] = target: Gal4S6S(b1-4)GlcNAc
# Summary of the method: as §1
# [31] = target: Gal6S(b1-4)Glc
# Summary of the method: as §1
# [32] = target: Gal6S(b1-4)Glc6S
# Summary of the method: as §1
# [33] = target: Gal6S(b1-4)GlcNAc
# Summary of the method: as §1
# [34] = target: Gal6S(b1-4)GlcNAc6S
# Summary of the method: as §1
# [35] = target: GalNAc(a1-3)Gal
# Summary of the method: as §1
# [36] = target: GalNAc(a1-3)GalNAc
# Summary of the method: as §1
# [37] = target: GalNAc(a1-3)GalNAc(a1-3)Gal(a1-4)Gal(b1-4)GlcNAc
# Summary of the method: as §1
# [38] = target: GalNAc(b1-3)Gal
# Summary of the method: as §1
binder,measurement,setting,value
"Gal 3 (Homo sapiens), P17931 (protein) MADNFSLHDALSGSGNPNPQGWPGAWGNQPAGAGGYPGASYPGAYPGQAPPGAYPGQAPPGAYHGAPGAYPGAPAPGVYPGPPSGPGAYPSSGQPSAPGAYPATGPYGAPAGPLIVPYNLPLPGGVVPRMLITILGTVKPNANILDFQRGNDVAFHFNPRFNENNRRVIVCNTKLDNNWGREEIQSVFPFESGKPFKIQVLVEPDHFKVAVNDAHLLQYNHRVKKLNEISKLGISGDIDLTSASYTMI",glycan array binding signal (z-score),[1],-0.094
same,glycan array binding signal (z-score),[2],-0.193
same,glycan array binding signal (z-score),[3],-0.118
same,glycan array binding signal (z-score),[4],-0.197
same,glycan array binding signal (z-score),[5],0.065
same,glycan array binding signal (z-score),[6],1.41
same,glycan array binding signal (z-score),[7],0.121
same,glycan array binding signal (z-score),[8],-0.011
same,glycan array binding signal (z-score),[9],-0.1
same,glycan array binding signal (z-score),[10],-0.162
same,glycan array binding signal (z-score),[11],0.077
same,glycan array binding signal (z-score),[12],0.026
same,glycan array binding signal (z-score),[13],-0.076
same,glycan array binding signal (z-score),[14],-0.192
same,glycan array binding signal (z-score),[15],-0.176
same,glycan array binding signal (z-score),[16],-0.148
same,glycan array binding signal (z-score),[17],-0.161
same,glycan array binding signal (z-score),[18],-0.144
same,glycan array binding signal (z-score),[19],-0.18
same,glycan array binding signal (z-score),[20],-0.189
same,glycan array binding signal (z-score),[21],-0.17
same,glycan array binding signal (z-score),[22],-0.164
same,glycan array binding signal (z-score),[23],-0.151
same,glycan array binding signal (z-score),[24],-0.171
same,glycan array binding signal (z-score),[25],-0.106
same,glycan array binding signal (z-score),[26],-0.188
same,glycan array binding signal (z-score),[27],-0.162
same,glycan array binding signal (z-score),[28],-0.183
same,glycan array binding signal (z-score),[29],-0.189
same,glycan array binding signal (z-score),[30],-0.177
same,glycan array binding signal (z-score),[31],-0.18
same,glycan array binding signal (z-score),[32],0.239
same,glycan array binding signal (z-score),[33],-0.167
same,glycan array binding signal (z-score),[34],-0.191
same,glycan array binding signal (z-score),[35],-0.188
same,glycan array binding signal (z-score),[36],-0.174
same,glycan array binding signal (z-score),[37],-0.188
same,glycan array binding signal (z-score),[38],-0.193
